Results: the supplement of paper PMC3334620
In all, about 33,000 sequences were measured (“E-score (-0.5 to 0.5)”: median about -0.043, highest 2% from about 0.37 on). The list shows a part of the results.

Target: T1, Upc2 (UniProt Q12151)
T1 sequence: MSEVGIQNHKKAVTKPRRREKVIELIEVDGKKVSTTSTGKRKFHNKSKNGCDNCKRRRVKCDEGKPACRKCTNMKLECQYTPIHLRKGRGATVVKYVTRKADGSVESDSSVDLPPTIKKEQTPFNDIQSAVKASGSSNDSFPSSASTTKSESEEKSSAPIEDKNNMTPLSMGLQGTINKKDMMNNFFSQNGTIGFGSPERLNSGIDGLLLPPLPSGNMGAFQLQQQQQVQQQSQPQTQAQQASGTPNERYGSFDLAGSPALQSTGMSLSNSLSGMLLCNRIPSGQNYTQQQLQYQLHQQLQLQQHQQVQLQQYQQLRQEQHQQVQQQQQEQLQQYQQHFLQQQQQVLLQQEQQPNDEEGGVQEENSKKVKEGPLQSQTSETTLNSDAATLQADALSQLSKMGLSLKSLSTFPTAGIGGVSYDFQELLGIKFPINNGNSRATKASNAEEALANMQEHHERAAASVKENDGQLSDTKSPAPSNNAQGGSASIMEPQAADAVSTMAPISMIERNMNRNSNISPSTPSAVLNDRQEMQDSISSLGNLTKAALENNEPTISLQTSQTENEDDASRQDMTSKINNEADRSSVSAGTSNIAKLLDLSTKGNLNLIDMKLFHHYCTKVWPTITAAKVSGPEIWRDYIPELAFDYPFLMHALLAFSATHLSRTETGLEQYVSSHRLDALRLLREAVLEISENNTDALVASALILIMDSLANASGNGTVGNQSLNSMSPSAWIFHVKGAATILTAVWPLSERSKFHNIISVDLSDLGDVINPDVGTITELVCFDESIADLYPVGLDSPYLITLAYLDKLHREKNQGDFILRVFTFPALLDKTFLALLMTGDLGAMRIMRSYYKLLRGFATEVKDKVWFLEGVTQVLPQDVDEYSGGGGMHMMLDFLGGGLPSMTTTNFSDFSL
Test: PBM E-score (8-mer binding enrichment) (E-score (-0.5 to 0.5)); higher = stronger / more preferred TF binding; most listed sequences are background and not binding sites
Conditions: protein concentration: 200 nM; construct: GST-full length
Experimental: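 Universal 'all 10-mer' protein binding microarrays (Agilent AMADID 015681) probed with GST-tagged S. cerevisiae TFs (full-length or DBD) made by in vitro transcription/translation (PURExpress), about 100-200 nM. Bound TF was detected with fluorescent anti-GST. Each ungapped 8-mer (which stands for itself and its reverse complement) is scored by the PBM enrichment score (E-score), a modified Wilcoxon-Mann-Whitney statistic from -0.5 to +0.5, computed with the Universal PBM Analysis Suite. Scale: above 0.35 generally sequence-specific binding.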

First: ACGTAATG
Second: CTGTCTCA
The “PBM E-score” value of the first is higher: 0.0828 for the first, -0.149 for the second.

First: CAATATCC
Second: CCGGCTCC
The “PBM E-score” value of the first is higher: -0.0571 for the first, -0.0858 for the second.

Compared with AGGGCCAC, AGTGCGGA is higher in “PBM E-score” value: -0.0238 for the first, 0.0998 for the second.

First: GCGTTTTA
Second: CACGATAC
The “PBM E-score” value of the first is higher: 0.206 for the first, 0.197 for the second.

Going from AATTAAAT to CAGCCGAG, the “PBM E-score” value rises from -0.182 to -0.115.

First: CCATTTCC
Second: AGACTCCA
The “PBM E-score” value of the first is lower: -0.129 for the first, -0.0995 for the second.

First: AAGTACCA
Second: TATAGGCA
The “PBM E-score” value of the first is higher: 0.136 for the first, -0.0232 for the second.

Going from TAGTTGAA to TCACGCCA, the “PBM E-score” value falls from 0.0322 to -0.044.

Going from GTCCAAGA to AATAATAA, the “PBM E-score” value rises from -0.308 to 0.0771.

First: CGTCCACC
Second: AAAACAAT
The “PBM E-score” value of the first is lower: -0.188 for the first, -0.0771 for the second.

Going from CTCTCAAA to AAGCTGGT, the “PBM E-score” value falls from 0.0587 to -0.0392.

Compared with TGAAGCCA, ATAACAGC is higher in “PBM E-score” value: -0.068 for the first, -0.0133 for the second.

Going from CCACGTTC to ATTGCTTG, the “PBM E-score” value falls from 0.0171 to -0.0878.

Going from GGTAAGGA to GCGAGCGC, the “PBM E-score” value rises from -0.19 to 0.0844.

Going from GCACTCAC to GGCTTAAA, the “PBM E-score” value rises from -0.117 to 0.113.

Compared with CATTGGGC, ATCCTTCA is higher in “PBM E-score” value: -0.0682 for the first, 0.0106 for the second.

Compared with GACTTCAC, TCTAGAGA is lower in “PBM E-score” value: -0.0993 for the first, -0.274 for the second.

First: CGTATTAG
Second: AAAAGGTT
The “PBM E-score” value of the first is higher: 0.353 for the first, -0.118 for the second.

First: ATTCATCC
Second: AGATAGTC
The “PBM E-score” value of the first is higher: -0.0145 for the first, -0.0153 for the second.

Compared with CCATAATA, CCCTGAGG is lower in “PBM E-score” value: -0.0867 for the first, -0.181 for the second.

Going from CAGTGATC to CGTGACCC, the “PBM E-score” value rises from -0.128 to 0.0582.

Going from AGTGGCCG to CCCATCGC, the “PBM E-score” value rises from -0.212 to -0.0313.

Going from GTTTCTTA to GAATTACA, the “PBM E-score” value falls from 0.132 to 0.0129.

First: GCGGGAAA
Second: ATGTCGGA
The “PBM E-score” value of the first is higher: 0.126 for the first, 0.0657 for the second.

Going from GGCTGAAA to CTCTCGCC, the “PBM E-score” value falls from -0.045 to -0.112.

Going from AGATCGAA to ACCGTCCT, the “PBM E-score” value falls from -0.102 to -0.207.

First: AAATTGGA
Second: ACCAGGTA
The “PBM E-score” value of the first is higher: -0.0431 for the first, -0.0537 for the second.

Compared with AACGATTG, AGGTAGTG is lower in “PBM E-score” value: 0.391 for the first, -0.00444 for the second.

Going from CCTTGGAG to ACGGTTAT, the “PBM E-score” value rises from -0.122 to 0.329.

First: CAATGAGA
Second: CACACGTA
The “PBM E-score” value of the first is lower: -0.156 for the first, 0.0642 for the second.

Compared with CCGTTGCG, CGGAGGGA is lower in “PBM E-score” value: 0.173 for the first, -0.178 for the second.

Going from GAGAAACA to GAGTGTGA, the “PBM E-score” value rises from -0.0828 to 0.156.

Going from CGGCCAAC to ATCCCTAA, the “PBM E-score” value falls from -0.0371 to -0.132.

Going from GCAGCGGC to AAAGCCGC, the “PBM E-score” value rises from -0.0934 to 0.0199.

First: CGCAAAGC
Second: ACGAGGGA
The “PBM E-score” value of the first is lower: 0.188 for the first, 0.364 for the second.

Compared with CTCCGAAA, GAGATGGA is lower in “PBM E-score” value: -0.108 for the first, -0.151 for the second.

Compared with CAAGAACA, ATCTCCGC is lower in “PBM E-score” value: 0.00235 for the first, -0.17 for the second.

First: GGTATGTA
Second: CCACTTGC
The “PBM E-score” value of the first is higher: -0.116 for the first, -0.312 for the second.

First: ACCCATCT
Second: CGACTCGA
The “PBM E-score” value of the first is lower: -0.0321 for the first, 0.0612 for the second.

Compared with AAATGAAA, AGGCTTAA is lower in “PBM E-score” value: 0.189 for the first, -0.0508 for the second.

First: CGTCGGAA
Second: AGGAACCT
The “PBM E-score” value of the first is higher: 0.107 for the first, -0.121 for the second.

Going from ATGTTATA to ATAGGCAA, the “PBM E-score” value falls from 0.158 to -0.149.

First: ACTCGCTC
Second: GACTGTGA
The “PBM E-score” value of the first is higher: 0.231 for the first, -0.208 for the second.

Compared with AGCCCATA, CTAGATGC is lower in “PBM E-score” value: -0.137 for the first, -0.229 for the second.

First: AGGATTCC
Second: GGCCGCCA
The “PBM E-score” value of the first is higher: -0.263 for the first, -0.268 for the second.

Going from CCATCTCC to AGCTCTTA, the “PBM E-score” value rises from -0.0952 to 0.0489.

Going from CCGCGTTA to ATCCAGTG, the “PBM E-score” value falls from 0.144 to -0.28.

Going from GCGCTCGA to TAATTCTA, the “PBM E-score” value rises from 0.0495 to 0.114.

Going from CTCCTGGA to GCCGGACA, the “PBM E-score” value rises from -0.243 to -0.0784.

Going from ACGTCGGG to GATTAGGA, the “PBM E-score” value falls from 0.187 to -0.00353.

Compared with CTCAGGAA, AGTTTAAG is higher in “PBM E-score” value: -0.135 for the first, 0.0878 for the second.

Going from CTGAGACA to TTAAGCAA, the “PBM E-score” value rises from -0.143 to 0.00404.

Going from GGTGACAA to GCATCACC, the “PBM E-score” value falls from -0.0338 to -0.29.

Compared with TTCCTAAA, AGGTGAGG is higher in “PBM E-score” value: -0.119 for the first, -0.0489 for the second.

Going from CCCGGCAA to GCCCTGCC, the “PBM E-score” value falls from -0.034 to -0.129.

Compared with AGAAGTCC, CTGAACGC is higher in “PBM E-score” value: 0.0121 for the first, 0.121 for the second.

Going from CAATACGC to CCGGCCGG, the “PBM E-score” value rises from 0.0949 to 0.125.

Going from AGGTATTA to ACTACTAG, the “PBM E-score” value falls from -0.0679 to -0.131.

Compared with GCTTGCCA, AGCGCGCT is higher in “PBM E-score” value: 0.017 for the first, 0.178 for the second.

Compared with TCGGCGAA, ACTCTAAA is higher in “PBM E-score” value: -0.0272 for the first, -0.00671 for the second.

First: CTGAAGTC
Second: CATAATCG
The “PBM E-score” value of the first is lower: 0.05 for the first, 0.141 for the second.

Going from ATTAAGTC to CTACCGCA, the “PBM E-score” value falls from -0.114 to -0.234.

Compared with AAGAGGTG, ATATCGGG is lower in “PBM E-score” value: 0.0382 for the first, -0.061 for the second.

Compared with AATGAAGT, TCAAATGA is lower in “PBM E-score” value: -0.0664 for the first, -0.274 for the second.

Compared with GCATACAA, AACGGGAA is higher in “PBM E-score” value: -0.0164 for the first, 0.229 for the second.

Going from ACGTGTAG to ACCACGTG, the “PBM E-score” value rises from 0.0435 to 0.0941.

First: GCATCCCC
Second: GGACTCTA
The “PBM E-score” value of the first is higher: 0.00972 for the first, -0.182 for the second.

First: ACGGCGAG
Second: TCCTAAGA
The “PBM E-score” value of the first is higher: 0.185 for the first, -0.156 for the second.

Going from ATATGATG to GTTGTAAA, the “PBM E-score” value rises from -0.22 to -0.0684.

Going from AGGGCAGC to AAACATGG, the “PBM E-score” value rises from -0.171 to -0.13.

First: ATGCACAA
Second: ACCAGCGC
The “PBM E-score” value of the first is lower: 0.00244 for the first, 0.0181 for the second.

First: GCTTGATA
Second: GAATAAAA
The “PBM E-score” value of the first is lower: -0.162 for the first, 0.193 for the second.

Compared with AGTCACCC, CGTCGGTA is higher in “PBM E-score” value: -0.184 for the first, 0.138 for the second.

Going from TGATTCAA to CACATGGA, the “PBM E-score” value falls from -0.0458 to -0.202.

Compared with ATGAATAC, TCGCCCAA is lower in “PBM E-score” value: 0.124 for the first, -0.00958 for the second.

Going from CAACCGGG to TGTGATAA, the “PBM E-score” value rises from -0.166 to -0.0434.

First: AAGTGCAA
Second: ATGAGGAC
The “PBM E-score” value of the first is higher: -0.0117 for the first, -0.149 for the second.

Going from GCCATCGC to CGTTTGCC, the “PBM E-score” value rises from -0.184 to 0.323.

Compared with AGATAATG, ATTATTAA is lower in “PBM E-score” value: 0.0805 for the first, -0.117 for the second.

Going from CACGCCGG to TGAAAAAA, the “PBM E-score” value rises from -0.183 to 0.0284.

Compared with ACAATCGA, ACGCGCGG is higher in “PBM E-score” value: 0.0489 for the first, 0.0993 for the second.

Going from CTCATAGA to TATACTGA, the “PBM E-score” value rises from -0.132 to 0.263.

Compared with ACAAAGTG, CGAGTCGC is higher in “PBM E-score” value: -0.111 for the first, 0.159 for the second.

First: AAGCGCAT
Second: ACCAATTA
The “PBM E-score” value of the first is higher: 0.0677 for the first, -0.0776 for the second.

Going from GACAACAC to CCCCCCTC, the “PBM E-score” value falls from 0.187 to -0.0916.

Compared with TATAGTAA, TAGTACGA is higher in “PBM E-score” value: 0.15 for the first, 0.401 for the second.
